Source: paper PMC12136788
Changes are numbered by the printed parent chain. The list shows a part of the results.

B1: chr2:35971668:35971669:-_ENSMUSG00000026889_ENSMUST00000028251|mus_hu|FALSE|FALSE (ssRNA)
RNA: GGGAGUUCUACAGUCCGACGAUCGAAUCAGUACAAAUAAUAAACAGUGCUUUAAAUACAAAUAAAUAGCUCUGGUUUCUAAAGGAAACAACUCUAUAUAUAAUUCUAAGUUUUUUCUAAGUUCCUAUUAAAAAUAGAAGACUACAACAGAGGAUUGAGCAUCA
B2: chr7:54825262:54825263:-_ENSG00000132432_ENST00000352861|hu_hu|hu_hu_hu_mus_False|28_38 (ssRNA)
RNA: GGGAGUUCUACAGUCCGACGAUCCUGCCGGCUGGGCUCCACAAACUGCAUUACCUGAUCCAUGUUUGUUGGAUGGCGGAUUGAGAGCGUAGAGACAACGUAGCACUGGAGCUUGCUAGCCCAACGGAACCGGAAGCUGGCAACCAACAGAGGAUUGAGCAUCA
B3: chrX:148369326:148369327:+_ENSMUSG00000025261_ENSMUST00000112622|mus_mus|FALSE|FALSE (ssRNA)
RNA: GGGAGUUCUACAGUCCGACGAUCCUUGUCUCGCAUUGAAUCAUUAGCUGUGCACAUCAACACAUUCCAAGCACAAAUUAAGAAAUGCAAACAGAACAAAAAAAUAUAUAUAUAUAUAAUUUUUCCCCUAUCCAAAGGUUUCAACAACAGAGGAUUGAGCAUCA
B4: chr2:198351390:198351391:-_ENSG00000144381_ENST00000345042|hu_hu|hu_hu_hu_mus_False|18_108 (ssRNA)
RNA: GGGAGUUCUACAGUCCGACGAUCUCAUUCUCACUCUCCACAGAAAGGCUGCUUCUGAACUCUCAUGUGGUGACACAGCGCUACAGUCCUGAUGCUCACAGAACAGUAGAGAUGCCUCCUCAGUGAUAGUUGAAAGCAGGACACCAACAGAGGAUUGAGCAUCA
B5: chr14:23058014:23058015:-_ENSG00000129562_ENST00000250498|hu_hu|motif|central (ssRNA)
RNA: GGGAGUUCUACAGUCCGACGAUCAGCAGGUACGCGUCCAGCAACUUCAGACGCUGCGGAGUGGAGCUCAAGUACUCUUCGGAGAACCGCGAAAUGACAGACACUACCGACGCCGACAUAACUGCACGCAAGGUACUCCAGUCCCAACAGAGGAUUGAGCAUCA
B6: 195163662_195163782_85_5pUTR_ENSG00000114331_ENST00000326793|human|control|control (ssRNA)
RNA: GGGAGUUCUACAGUCCGACGAUCCACGGCCGCGACUAGCGUUGCGCGGAGCUGCGAAGGGCGCCUCGCCCGCUGGUCAUAGCAGCCGCGAAGACGGCGACGACUAGUCAGGCCCCAGUCCCGCCCCUCUUCCUCCCGCCCCAACAACAGAGGAUUGAGCAUCA
B7: chr12:41043843:41043844:-_ENSMUSG00000055917_ENSMUST00000069637|mus_mus|FALSE|FALSE (ssRNA)
RNA: GGGAGUUCUACAGUCCGACGAUCUUUGGAUUUGAACUUUACAUGGCAACUGUAGCACUUGCAUUGGUGAACUUGCCUUCUAAUGAAAUUGACCAGCUUCACUUGCUGAUAGAAAUUUAAUCCAAGCUCUGACUUUAUUCUGAGCAACAGAGGAUUGAGCAUCA
B8: chr6:114270382:114270383:-_ENSG00000196591_ENST00000368632|hu_mus|FALSE|FALSE (ssRNA)
RNA: GGGAGUUCUACAGUCCGACGAUCCAUCUCCAUCACUUUUGAGAUGAUAGGCUUAAAAAUUUGUCCAUAUGAUUCAUCAUCUAUACCAUCUCUCAUGGGAAAAUUGACAGCAUAGUAUUUUCCCUUUCCAGCACCAAUAUCCCUCAACAGAGGAUUGAGCAUCA
B9: chr16:53361121:53361122:+_ENSG00000177200_ENST00000398510|hu_mus|motif|central (ssRNA)
RNA: GGGAGUUCUACAGUCCGACGAUCGAGGCCUGAAACAAGGGGUAGACCACAAGGCAACACCAGCUAUAACUCUCUCAGGAACGGCCAACACGUACUGGGAUAGCCUUUCAGCUGCAGCUUGAGUAAGUGGGACUGCAUUGACUUCAACAGAGGAUUGAGCAUCA
B10: chr4:76721835:76721836:+_ENSG00000138768_ENST00000264904|hu_mus|hu_hu_hu_mus_True|28_98 (ssRNA)
RNA: GGGAGUUCUACAGUCCGACGAUCGUUUGGCUGGGGUUCUGAGAUGCCUCUGGAAUAUAACUCAUGUUUGCUAAUAAAUCCUAGUUUCUCUAUGAAAUUCUCUUUGCAAUCCUCUUCCUCUAUUAGUUGCUUUAGUUUCUCUUUCAACAGAGGAUUGAGCAUCA
B11: chr1:46159212:46159213:+_ENSG00000159596_ENST00000372025|hu_mus|hu_hu_hu_mus_True|68_68 (ssRNA)
RNA: GGGAGUUCUACAGUCCGACGAUCUCUGAUCCCUCCCAAGAAAGCUAGGAAACCGGCUCCAUAAGCCAUCUGAGUAAAAGCUAGGACGGGGAUAUAAGACUUUGUUAUUACCAUGAGAAGUGGGGGAGCAGUAAAGGGGAUUAACAACAGAGGAUUGAGCAUCA
B12: chr5:122941739:122941740:-_ENSMUSG00000029467_ENSMUST00000031423|mus_hu|motif|central (ssRNA)
RNA: GGGAGUUCUACAGUCCGACGAUCUCUUUCCUGCCAUACACCCACAAUUGCAUUGGCUACUAAUAUGAGUAAAAUUACAAAAGGUUCGGCAAAGGCUGUAAUUGUUUCUUCACCUUCUUCAAACCAAGCCAAAACAAAAGAUAUCAACAGAGGAUUGAGCAUCA
B13: chr1:130485734:130485735:-_ENSMUSG00000045382_ENSMUST00000052172|mus_mus|mus_mus_mus_hu_False|58_88 (ssRNA)
RNA: GGGAGUUCUACAGUCCGACGAUCGAUGAAGGAGUCGAUGCUGAUCCCCACAUAAUAAGGCAGCCAACAGGCGAAGAAAGCUAGGAUGAGGAUGACUGUGGUCUUGAGGGCCUUGCGCUUCUGGUGGCCCUUGGAGUGUGACAGCAACAGAGGAUUGAGCAUCA
B14: chr22:19452774:19452775:-_ENSG00000070010_ENST00000399523|hu_hu|hu_hu_hu_mus_False|28_48 (ssRNA)
RNA: GGGAGUUCUACAGUCCGACGAUCCUUCUCAUUGUAGUUGAUAGCAAUCACAUCUCCAGUCGUCAGACAGGCGAAGUUUCUCAAUGCGUUUUCUAAUACCGCUUUAGGGUUGGUGAUAUCCAGGAAGUCUGGGCUCUGAGGCUGCAACAGAGGAUUGAGCAUCA
B15: chr2:48026839:48026840:+_ENSG00000116062_ENST00000540021|hu_hu|hu_hu_hu_mus_False|8_8 (ssRNA)
RNA: GGGAGUUCUACAGUCCGACGAUCAUAGUGAGCCACUAGCGUCCUAAAUCUGGAACAGUGGCGGUCAUCCGAAAACUGGCCGAUGAAAAACUUGCCCAGUGAAGUGUCCACAAAGCAAACACCAUACGCACGAGUAUGACCAGACAACAGAGGAUUGAGCAUCA
B16: chr3:179287964:179287965:+_ENSG00000136518_ENST00000429709|hu_hu|hu_hu_hu_mus_True|48_68 (ssRNA)
RNA: GGGAGUUCUACAGUCCGACGAUCCUUGAGUGGUGAGAUGGCCUCCAUGUUCUCCCUGGGCACGCGGAGAGCAUUAGUGUCUAUGUAGUAGGUGGGACCGCCCUGCUUGCCUUUGUCACCAUCAAUCUCCAUCAUUGUACUUCCCAACAGAGGAUUGAGCAUCA
B17: chr7:30890253:30890254:+_ENSMUSG00000049421_ENSMUST00000108200|mus_mus|motif|central (ssRNA)
RNA: GGGAGUUCUACAGUCCGACGAUCUUCUUUCUGGCUAAAAGCCUUACCACACUCAUUACACUUAAAAGGUUUCUUCCCACGGUGGAUAUUCUGGUGUUUAAUGAGGUAUUGCUUCUGGCUGAAGGCUCUUCCACACUGACUACACAACAGAGGAUUGAGCAUCA
B18: 108466383_108469091_1100_3pUTR_ENSG00000108018_ENST00000263054|human|control|control (ssRNA)
RNA: GGGAGUUCUACAGUCCGACGAUCUGAUGUCAGCUGAACAAACACAUAAUGAUCCUGAACAAUCAAAGAGUCUGGGUCAAUGUAGCCUGGAAAAGGCUGAUUCCUGUUGGCCUCUGUACAGUUCUGCAUUCGGCAAGUUAGAUACAACAGAGGAUUGAGCAUCA
B19: chr1:46159212:46159213:+_ENSG00000159596_ENST00000372025|hu_mus|hu_hu_hu_mus_True|48_108 (ssRNA)
RNA: B11 RNA with U33A, A75G, G90A
B20: 16164087_16164207_2571_3pUTR_ENSG00000169762_ENST00000405303|human|control|control (ssRNA)
RNA: GGGAGUUCUACAGUCCGACGAUCAUAAUUUAUGAAGUAAUUAGUUUUAAAGCAAAAUCAGUUAAGUAUACCUUAAAGUUAACACUGCUCUGCUUCCUUGGUGUAAAAAGUGCCCUUUUGUAAGGAAAUUUGUUUUAUCCACCACAACAGAGGAUUGAGCAUCA
B21: chr3:96579679:96579680:+_ENSMUSG00000028098_ENSMUST00000029740|mus_hu|motif|central (ssRNA)
RNA: GGGAGUUCUACAGUCCGACGAUCGUGGAGGUCUUGCUCCCCAGAAGUCAGUGUGAGUCUGGUGACCCCUUUCAUUGGCUCGGUUAUCUUGGUCCAGUGGACUGCUACUUAGAAAGGGUCUAAAAUCUUGAAAAAACAUCGUGUCAACAGAGGAUUGAGCAUCA
B22: chr18:9122563:9122564:+_ENSG00000178127_ENST00000318388|hu_mus|FALSE|FALSE (ssRNA)
RNA: GGGAGUUCUACAGUCCGACGAUCGACCUGGAUAUGGUACUUCCCAACUGGCUUUCGAUUAUACAUUGUAUAAAAAGUUGCUACUUCAUAUACUCUCAUUGGAGGUACUUGUAAAACUUCAGCCACCUUGUUCAUAGCGGAGAUCAACAGAGGAUUGAGCAUCA

biological target: T1, UNK ZnF1-3 (human, UniProt Q9C0B0 31-174); assay: nsRBNS (natural sequence RNA bind-n-seq); RBNS binding buffer (assumed for nsRBNS): 25 mM Tris pH 7.5, 150 mM KCl, 3 mM MgCl2, 0.01% Triton X-100, 500 ug/ml BSA, 20 U/ml SUPERase-In, 4 C; UNK is unkempt and MSI1 is Musashi-1; names of the RNAs are library labels; protein concentration not given here; high values mean tight binding
T1 sequence: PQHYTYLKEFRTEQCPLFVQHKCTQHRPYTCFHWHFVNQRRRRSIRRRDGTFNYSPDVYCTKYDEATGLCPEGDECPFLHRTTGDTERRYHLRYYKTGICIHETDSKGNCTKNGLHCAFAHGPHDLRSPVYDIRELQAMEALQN

In order of rising binding signal:
1. B10  0.503 enrichment R
2. B6  0.616 enrichment R
3. B17  0.687 enrichment R
4. B21  0.687 enrichment R
5. B16  0.688 enrichment R
6. B3  0.743 enrichment R
7. B14  0.753 enrichment R
8. B22  0.856 enrichment R
9. B7  0.883 enrichment R
10. B18  0.94 enrichment R
11. B15  0.992 enrichment R
12. B4  1.02 enrichment R
13. B20  1.09 enrichment R
14. B9  1.12 enrichment R
15. B12  1.22 enrichment R
16. B11  1.25 enrichment R
17. B19  1.36 enrichment R
18. B2  1.37 enrichment R
19. B13  1.37 enrichment R
20. B8  1.6 enrichment R
21. B5  1.65 enrichment R
22. B1  1.9 enrichment R
